Experimental data: publication PMC4336329 (PLoS ONE, 2015)
Among all 310,000 compounds or so, about 14,000 (4.5%) showed an effect of 50% or more. Effects have a minus sign here. The list shows a part of the results.

These compounds were tested against human ether-à-go-go-related gene (hERG) potassium channel (human, UniProt Q12809) (assay: primary screen, population patch clamp on CHO cells stably expressing hERG).
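Also: peak tail current of the secondary pulse compared with the same well before compound.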

Chain of human ether-à-go-go-related gene (hERG) potassium channel (Q12809 whole entry, looked up): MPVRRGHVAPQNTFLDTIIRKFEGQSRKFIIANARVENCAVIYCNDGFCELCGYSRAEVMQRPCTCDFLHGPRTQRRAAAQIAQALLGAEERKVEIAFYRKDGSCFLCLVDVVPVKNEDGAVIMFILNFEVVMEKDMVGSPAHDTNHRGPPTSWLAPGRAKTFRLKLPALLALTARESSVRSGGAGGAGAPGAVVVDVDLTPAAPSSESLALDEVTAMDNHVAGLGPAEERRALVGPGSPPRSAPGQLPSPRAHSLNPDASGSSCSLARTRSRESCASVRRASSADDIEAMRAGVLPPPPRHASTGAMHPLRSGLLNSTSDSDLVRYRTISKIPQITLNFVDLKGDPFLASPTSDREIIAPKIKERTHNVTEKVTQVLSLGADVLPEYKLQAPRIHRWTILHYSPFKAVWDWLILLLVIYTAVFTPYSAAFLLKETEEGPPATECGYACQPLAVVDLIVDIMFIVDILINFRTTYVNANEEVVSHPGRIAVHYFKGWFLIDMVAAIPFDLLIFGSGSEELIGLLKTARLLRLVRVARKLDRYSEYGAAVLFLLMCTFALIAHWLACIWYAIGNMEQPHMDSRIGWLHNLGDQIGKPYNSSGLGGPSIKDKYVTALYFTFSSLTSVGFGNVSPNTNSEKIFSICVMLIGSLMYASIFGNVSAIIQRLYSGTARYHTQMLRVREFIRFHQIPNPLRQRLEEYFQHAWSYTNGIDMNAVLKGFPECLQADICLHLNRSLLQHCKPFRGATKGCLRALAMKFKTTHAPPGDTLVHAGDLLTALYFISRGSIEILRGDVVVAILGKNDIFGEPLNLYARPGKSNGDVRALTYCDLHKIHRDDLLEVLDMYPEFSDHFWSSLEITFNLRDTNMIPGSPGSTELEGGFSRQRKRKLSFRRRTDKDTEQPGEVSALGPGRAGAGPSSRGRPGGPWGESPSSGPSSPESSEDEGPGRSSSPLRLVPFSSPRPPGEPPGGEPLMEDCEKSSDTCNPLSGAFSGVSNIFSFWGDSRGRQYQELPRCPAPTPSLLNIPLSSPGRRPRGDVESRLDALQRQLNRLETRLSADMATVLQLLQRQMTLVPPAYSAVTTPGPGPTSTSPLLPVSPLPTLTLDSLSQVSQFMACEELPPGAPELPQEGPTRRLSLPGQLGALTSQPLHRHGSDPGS

Structure (SMILES) | hERG current change (%, negative = inhibition) at 10uM
CCOc1ccc(C2CC(c3cccc(Cl)c3)n3nc(N)nc3N2)cc1 (stereo not shown) | 0.107%
CN(C)c1cc2c(cc1NS(=O)(=O)c1ccccc1)n(C)c(=O)n2C | 10.5%
O=S(=O)(Cc1ccc(Cl)cc1)N1CCN(c2ncccn2)CC1 | 13.2%
O=C(CCCn1cnc([N+](=O)[O-])n1)Nc1ccc(Cl)cc1Cl | -26.6%
Cc1cc(C(=O)CS(=O)c2ccc(F)cc2)cc(C)c1OC(=O)N(C)C (stereo not shown) | 16.7%
O=C(NC1CS(=O)(=O)CC1NCc1ccccc1)c1ccccc1 (stereo not shown) | 8.11%
COc1ccccc1CC(=O)Nc1ccc(C(=O)N2CCCCC2)cc1 | 2.21%
O=C(c1c(F)cccc1F)N(Cc1cccs1)C1CCCC1 | 7.71%
NC1=NC(c2ccc([N+](=O)[O-])cc2)N(c2ccc(F)cc2)C(N)=N1 (stereo not shown) | 13.8%
CC(C)(C)OC(=O)CC1(C#N)c2ccccc2C(Br)=CN1C(=O)c1ccccc1 (stereo not shown) | 8.71%
O=C1NC(Cc2ccccc2)C(=O)N1CC(=O)N1CCCc2ccccc21 (stereo not shown) | 6.98%
Cc1ccc(S(=O)(=O)N2CCOCC2)cc1C(=O)OCC(=O)Nc1ccc2c(c1)OCO2 | -10.9%
CC(NC(=O)CN1C(=O)NC(Cc2ccccc2)(Cc2ccccc2)C1=O)C12CC3CC(CC(C3)C1)C2 (stereo not shown) | 3.65%
CCOC(=O)COc1cc(=O)n(CC)c2ccccc12 | 3.92%
c1ccc(-n2c(-c3ccncc3)nnc2-c2cccs2)cc1 | -12.4%
CCN1C(=O)N[C@@H](c2cccc(F)c2)C(C(=O)OC)=C1C | 9.28%
COc1ccc(NC(=O)c2ccco2)cc1NC(=O)c1ccco1 | -27.3%
CN1CCN(CCc2nc3cc(NC(=O)COc4ccc([N+](=O)[O-])cc4)ccc3n2C)CC1 | 16.1%
COc1ccc(Cl)cc1N/C(N)=N/c1nc(C)cc(C)n1 | -84.2%
COc1cc(/C=N/Nc2ccc3ccccc3c2)ccc1OC(=O)c1ccco1 | 19%
COc1ccc2nc(N/C(N)=N/C(=S)Nc3cccc(C)c3)nc(C)c2c1 | 4.25%
COc1ccc(CN(C(=O)c2ccc3c(c2)OCCO3)C(C(=O)NC2CCCCC2)c2ccc3ncccc3c2)cc1 (stereo not shown) | -15.1%
O=[N+]([O-])c1cc(C(F)(F)F)ccc1NCCc1c[nH]c2ccccc12 | 7.06%
CCOc1ccc(-n2cnc3c(=O)[nH]c(N)nc32)cc1 | 7.78%
Cc1cc(=O)n2c3ccccc3n(CC(O)CN3CCOCC3)c2c1C#N (stereo not shown) | 17.9%
Cc1nn2c([nH]c(=O)c3ccccc32)c1C=O | -9.07%
Cc1cccnc1NC(=O)Cn1c(=O)oc2ccccc21 | 23%
CCOC(=O)N1CCN(S(=O)(=O)c2c(C)nc3scc(C)n3c2=O)CC1 | 3.41%

Structure (SMILES) | hERG current change (%, negative = inhibition) at 10uM
Cc1cc(C(=O)Nc2cccc([N+](=O)[O-])c2C)cs1 | 19.1%
COc1ccc(Cl)cc1NC(=O)CN(C)C(=O)Cc1ccc(-c2ccccc2)cc1 | -5.3%
CCOC(=O)C1CCCN(C(=O)CCCn2c(=O)c3cccn3c3cccnc32)C1 (stereo not shown) | 3.04%
Cc1cc(=O)oc2cc(OCCc3ccccc3)ccc12 | -0.326%
CCCNC(=O)COC(=O)/C=C/c1ccc2c(c1)OCO2 | 3.94%
CCC1=NN(C(=O)c2ccccc2O)C(O)(c2ccccc2)C1 (stereo not shown) | 6.94%
COCCSc1nnc(NC(=O)C2CC(=O)N(c3ccc(C)cc3)C2)s1 (stereo not shown) | 2.13%
Cn1c(CNC(=O)CNC(=O)c2ccc(C(C)(C)C)cc2)cc(=O)n(C)c1=O | 16.2%
COc1ccc(S(=O)(=O)N2CCOC23CCN(C(=O)c2c(F)cccc2Cl)CC3)cc1 | -17.6%
COc1cc(OC)cc(C(=O)N2CCC3(CC2)NCCc2[nH]cnc23)c1 | 17.2%
O=C(/C=C\c1cn(-c2ccccc2)nc1-c1ccccc1)Nc1nccs1 | 6.78%
Cc1ccc(S(=O)(=O)N(C)C)cc1NC(=O)CSc1nncs1 | -1.01%
COc1ccc2c(c1)[nH]c1c(N3CCN(Cc4ccc5c(c4)OCO5)CC3)ncnc12 | -74%
O=C(Nc1ccc(S(=O)(=O)N2CCOCC2)cc1)c1ccc(Cl)s1 | -5.32%
COc1ccc(NC(=O)N2CCC(C(=O)c3ccc(F)cc3)CC2)cc1 | -18.6%
Oc1ccccc1C(=S)N1CCCC1 | 13.8%
OC1COC(OCC2OC(OCc3ccccc3)C(O)C(O)C2O)C(O)C1O (stereo not shown) | -11.1%
CC(=O)Nc1ccc(C(=O)NNC(=O)c2ccc(Cl)cc2Cl)cc1 | 18.1%
S=C1NC2=C(CCC/C2=C\c2ccc(Cl)cc2)C(c2ccc(Cl)cc2)N1 (stereo not shown) | -14.8%
CC1CCN(C(=O)Cn2nnnc2CN2CCOCC2)CC1 | -22%
OCC1(CCOc2ccccc2)CCN(Cc2cccn2-c2ncccn2)CC1 | -82.2%
Cc1cccc(C(=O)NCCCNC(=O)c2cccc(C)c2)c1 | -3.67%
Cc1ccc(S(=O)(=O)NC2(C(F)(F)F)NC(=O)N(C)C2=O)cc1 (stereo not shown) | -8.17%
Cc1cccc(CSc2ncnc3ccccc23)c1 | 22.5%
CC1CCN(S(=O)(=O)c2ccc(C(=O)OC(C)C(=O)NC3CCCCC3C)cc2)CC1 (stereo not shown) | 3.77%
O=C(Nc1cccc(Cl)c1Cl)c1cc(S(=O)(=O)NCCc2ccccc2)ccc1F | -2.79%
COc1ccc(Nc2nc(-c3ccccc3)nc3ccccc23)cc1S(=O)(=O)N1CCOCC1 | -15.2%
